Assay results reported in the DeepSol protein solubility set.

Assay: soluble on expression in E. coli; label from the status in PepcDB or PDB records

MPFGNTHNKWKLNYSAAEEFPDLSKHNNHMAKALTLDIYKKLRDKETPSGFTLDDIIQTGVDNPGHPFIMTVGCVAGDEECYEVFKDLFDPVIEDRHGGYKPTDKHKTDLNQENLKGGDDLDPNYVLSSRVRTGRSIKGIALPPHCSRGERRLVEKLCIDGLATLTGEFQGKYYPLSSMSDAEQQQLIDDHFLFDKPISPLLLASGMARDWPDGRGIWHNNDKTFLVWVNEEDHLRVISMQKGGNMKEVFRRFCVGLKKIEDIFVKAGRGFMWNEHLGYVLTCPSNLGTGLRGGVHVKIPHLCKHEKFSEVLKRTRLQKRGTGGVDTAAVGSIYDISNADRLGFSEVEQVQMVVDGVKLMVEMEKRLENGKSIDDLMPAQK
soluble on expression in E. coli: soluble

MGSDKIHHHHHHGKPIELTPLPLLKDVPSSEQPELFLKKLQQCCVIFDFMDTLSDLKMKEYKRSTLNELVDYITISRGCLTEQTYPEVVRMVSCNIFRTLPPSDSNEFDPEEDEPTLEASWPHLQLVYEFFIRFLESQEFQPSIAKKYIDQKFVLQLLELFDSEDPRERDYLKTVLHRIYGKFLGLRAFIRKQINNIFLRFVYETEHFNGVAELLEILGSIINGFALPLKAEHKQFLVKVLIPLHTVRSLSLFHAQLAYCIVQFLEKDPSLTEPVIRGLIKFWPKTCSQKEVMFLGELEEILDVIEPSQFVKIQEPLFKQIAKCVSSPHFQVAERALYYWNNEYIMSLIEENSNVILPIMFSSLYRISKEHWNPAIVALVYNVLKAFMEMNSTMFDELTATYK
soluble on expression in E. coli: not soluble

GEFKGLDSKTFLSEHSMDMKFTYCDDRITELIGYHPEELLGRSAYEFYHALDSENMTKSHQNLCTKGQVVSGQYRMLAKHGGYVWLETQGTVIYNPRNLQPQCIMCVNYVLSEIEKN
soluble on expression in E. coli: soluble

SYQPTPEDRFTFGLWTVGWQGRDPFGDATRPALDPVETVQRLAELGAHGVTFHDDDLIPFGSSDTERESHIKRFRQALDATGMTVPMATTNLFTHPVFKDGGFTANDRDVRRYALRKTIRNIDLAVELGAKTYVAWGGREGAESGAAKDVRVALDRMKEAFDLLGEYVTSQGYDIRFAIEPKPNEPRGDILLPTVGHALAFIERLERPELYGVNPEVGHEQMAGLNFPHGIAQALWAGKLFHIDLNGQSGIKYDQDLRFGAGDLRAAFWLVDLLESAGYEGPRHFDFKPPRTEDIDGVWASAAGCMRNYLILKERAAAFRADPEVQEALRASRLDELAQPTAADGVQELLADRTAFEDFDVDAAAARGMAFERLDQLAMDHLLGAR
soluble on expression in E. coli: soluble

MGLLFTPLELRGLRLKNRLAMSPMCQYSATEGGEVTDWHLLHYPTRALGGVGLVIVEATAVLPEGRISPFDLGIWSEDHLPGLRELARRIREAGAVPGIQLAHAGRKAGTARPWEGGRPLGWKVVGPSPIPFAEGYPVPEALDEAGMARVLEAFVEGAKRALRAGFLVVELHMAHGYLLSSFLSPLANRREDAYGGSRENRMRFPLEVARAVREAIPPELPLFVRVSATDWAEGGWGLEDTLAFAERLKALGVDLLDLSSGGVVPGVRVPVAPGFQVPFADAVRKRVGMPTGAVGLLTTPEQAETVLQAGSADLVLLGRVLLRDPYFPLKAAKALGAEAPVPPQYQRAF
soluble on expression in E. coli: soluble

MHYPEPLSKLIDSFMKLPGIGPKTAARLAFHVLAMKEDTVLEFAKALVDVKRHIHYCTICGHITDTDPCYICKDERRNRTTICVVQDPKDVIAMERMKEYNGLYHVLHGAISPMEGIGPEDIKIAELLTRLQDETVQEVILATDPNIEGEATAMYISRLLKPTGIKVTRIAHGLPVGGDLEYADEVTLSKALEGRREL
soluble on expression in E. coli: not soluble

PIYVRFEVPEDLAEKAYEAVKRARETGRIKKGTNETTKAVERGLAKLVVIAEDVDPPEIVMHLPLLCDEKKIPYVYVPSKKRLGEAAGIEVAAASVAIIEPGDAETLVREIVEKVKELRAKAGV
soluble on expression in E. coli: soluble
